Where “and” joins values, the source holds several entries; their conditions need not be identical. Identical values can stand only once. The whole screen tested about 420,000 compounds, of which about 50,000 (12%) were called active. Inconclusive results, whose numbers are uncertain, are shown with a selection of clear calls. Calls come from the whole dose curve; as a rule, active = well fitted inhibition curve with a large enough effect; inconclusive = small, poorly fitted or top-dose-only effect; inactive = flat fitted curve, though single readings scatter. Potencies of inconclusive entries are left out as doubtful fits.
assay: qHTS for Inhibitors of human tyrosyl-DNA phosphodiesterase 1 (TDP1): qHTS in cells in presence of CPT; settings: chicken DT40 Tdp1-/-;hTDP1 cells + 20 nM CPT, ATP luminescence, 48 h; activity change, negative = growth inhibition: at 46.2 µM (top of the series) unless noted; note: nearly all actives have a fitted effect of over 55% in size
How it was run: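 Cell growth measured by CellTiter-Glo luminescence after a minimum 48 h, 37 C compound exposure with 20 nM CPT in Tdp1-knockout DT40 cells stably expressing hTDP1, seeded 400/well; qHTS titration format.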
% is set by controls: 0 for no effect and ±100 for the full control effect; potency is the fitted concentration of half-maximal effect; tags give direction and shape of the fitted curve.

Structure (SMILES) | activity change, negative = growth inhibition | Potency
COc1ccccc1C(=O)NC(=O)COc1cc(Cl)ccc1Cl | inconclusive: -30.4% [inhibitor] | –
COc1ccc(OCCC(=O)OCC(=O)Nc2cccc(S(=O)(=O)N3CCCCC3)c2)cc1 | – | inconclusive [inhibitor, single point]
C/C(=N\NC(=O)c1ccc([N+](=O)[O-])cc1)c1cccc([N+](=O)[O-])c1 | – | inactive
O=C(O)COc1ccccc1/C=N/NC(=O)CSc1nc2ccccc2c(=O)n1-c1ccc(Cl)cc1 | – | inactive
COc1ccc(C(=O)c2cn(CC(=O)Nc3ccc4c(c3)OCCO4)c3ccc(OC)cc3c2=O)cc1 | – | active: 20.6 µM
COc1ccccc1OCCNC(=O)C1CC(=O)N(Cc2ccccc2)C1 (stereo not drawn) | – | inactive
Cc1ccc(C)c(NC(=S)NCCN(C2CCCCC2)C2CCCC2)c1 | – | inconclusive [inhibitor, single point]
CCOc1ccc(-c2cc(C(=O)Nc3cc(OC)c(OC)c(OC)c3)[nH]n2)c(C)c1 | – | inconclusive [inhibitor, partial curve]
Cc1oc2ccc(O)c(CN(C)Cc3ccccc3)c2c1C(=O)Nc1cccc(C(F)(F)F)c1 | – | active: 5.8 µM
C/C(=N/NC(=O)CNC(=O)/C=C/c1ccco1)c1ccc(Cl)cc1 | – | inconclusive [inhibitor, partial curve]
Cc1nn(-c2ccccc2)c(Cl)c1CN(C(=O)CCl)c1ccc(Cl)cc1 | – | active: 7.31 µM
Cc1ccc(Cn2ccc(NC(=O)c3cc(CC(C)C)on3)n2)cc1 | – | inconclusive [inhibitor, partial curve]
CCN(C(=O)Cc1nc(-c2ccc(OC)cc2)no1)c1cccc(Cl)c1 | – | inconclusive [inhibitor, single point]
Cc1ccc(NC(=S)NCc2ccccc2)cc1C | – | inactive
COc1cccc(C2=CC(c3ccc(OC)c(OC)c3OC)n3ncnc3N2)c1 (stereo not drawn) | – | inconclusive [inhibitor, partial curve]
COCCNC(=O)C(c1ccc(C)o1)N(C(=O)c1snc(C(N)=O)c1N)c1cc(C)cc(C)c1 (stereo not drawn) | – | inconclusive [inhibitor, single point]
COc1ccc(CC(=O)Nc2cc(S(=O)(=O)Nc3ccc(OC)cc3)ccc2OC)cc1 | – | active: 20.6 µM
CCc1cc(C(=O)Nc2cc(S(=O)(=O)N(CC)CC)ccc2N2CCOCC2)sc1C | – | active: 20.6 µM
COc1ccc(C(CC(=O)Nc2cccc(C)c2C)N2Cc3ccccc3C2=O)cc1 (stereo not drawn) | – | active: 13 µM
Cc1cc(C)c(C(N)=O)c(NCCc2ccccc2)n1 | – | inconclusive [inhibitor, single point]
Cc1ccc(C(=O)NNC(=O)c2ccc(S(=O)(=O)N(C)c3ccccc3)cc2)cc1 | – | inactive
Cc1cccc(-c2cc(NC(=O)C(C)(C)C)n(-c3ccccc3)n2)c1 | – | inactive
COc1cc(C2c3c(oc4ccccc4c3=O)C(=O)N2c2nncs2)cc(OC)c1OC (stereo not drawn) | – | inactive
O=C(Nc1nc2ccccc2n1CCOc1ccc(Cl)cc1)c1ccco1 | – | active: 25.9 µM
CCCCOc1ccc(C(=O)CCN2CCCCC2)cc1 | – | active: 5.7 µM and active: 6.51 µM and active: 8.2 µM

Structure (SMILES) | activity change, negative = growth inhibition | Potency
CCOc1ccc(C(=O)n2cc(C(=O)OC)c3ccccc32)cc1OCC | – | inconclusive [inhibitor, single point]
CCC1CN(C(=O)N2CCC(C(=O)Nc3cc(C)ccc3C)CC2)c2ccccc2O1 (stereo not drawn) | – | active: 13 µM
COc1ccc(NC(=O)C2CCN(c3cnccn3)CC2)cc1OC | – | inactive
CCCc1ccc(OCc2ccc(C(=O)N/N=C/c3cccc([N+](=O)[O-])c3)o2)c(OC)c1 | – | active: 8.2 µM
CC(C)(C)OC(=O)C[C@H]1C/C=C\C[C@H](CC(=O)N(CCO)Cc2ccccc2)C(=O)N[C@H](C(C)(C)C)COC1=O | – | active: 29.1 µM
CCCn1nc(C(=O)NC2CCCC2)c2ccccc2c1=O | – | inactive
CSc1ccc(C(=O)C2CCCN(C(=O)c3nn(C)c(=O)c4ccccc34)C2)cc1 (stereo not drawn) | – | inconclusive [inhibitor, partial curve, poor fit]
Cc1ccc(C(=O)N2c3ccccc3N(Cc3ccccc3)C(=O)C2(C)C)cc1 | – | active: 14.6 µM
Nc1ccccc1C(=O)C[C@H](N)C(=O)O | – | inactive
Cc1[nH]c2ccccc2c1/C=C(\C#N)C(=O)NCC1CCCO1 (stereo not drawn) | – | inconclusive [inhibitor, partial curve]
O=C(COc1ccc(F)cc1)Nc1ccccc1C(=O)OCc1cc(=O)n2nc(C3CC3)sc2n1 | – | inconclusive [inhibitor, full curve, poor fit]
COc1ccc(-c2nc(N)ncc2-c2ccccc2OC)c(O)c1 | – | inconclusive [inhibitor, single point]
COc1cc(-c2nnc(-c3ccco3)o2)ccc1OCc1ccccc1 | – | inconclusive [inhibitor, single point]
COC(=O)[C@]1(Cc2ccccc2)N[C@H](CN(C)C(=O)Nc2ccccc2)[C@@H]2C(=O)N(Cc3ccccc3)C(=O)[C@@H]21 | – | inconclusive [inhibitor, single point]
CC1CCN(CCc2nc3cc(NC(=O)COc4ccccc4)ccc3n2C)CC1 | – | inconclusive [inhibitor, single point]
COC(C(=O)N/N=C(\C)CC(=O)Nc1ccc(Cl)cc1C)c1ccccc1 (stereo not drawn) | – | inactive
C=CCNc1cc(C(F)(F)F)nc(-c2ccccn2)n1 | – | active: 18.4 µM
CCC(=O)OCCNc1cc(Sc2nccn2C)c2nonc2c1[N+](=O)[O-] | – | active: 1.03 µM
CCOc1cc(CNc2ncnc3nc[nH]c23)ccc1OC | – | inconclusive [inhibitor, partial curve]
O=C(N/N=C/c1c[nH]c2ccc(Br)cc12)c1ccccn1 | – | inactive
CC(NC(=O)c1ccc(Nc2nc3ccccc3n3nnnc23)cc1)c1ccccc1 (stereo not drawn) | – | active: 13 µM
Cc1nn(Cc2ccc(F)cc2)c2sc(C(=O)Nc3nccs3)cc12 | – | inactive
O=C1CC(SC(=NCc2ccc3c(c2)OCO3)Nc2ccccc2)C(=O)N1c1ccccc1 (stereo not drawn) | – | inconclusive [inhibitor, single point]
Cc1c(C(=O)NCc2ccc(F)cc2)c(-c2ccccc2)nn1-c1ccccc1 | – | inconclusive [inhibitor, single point]
Cc1ccc(S(=O)(=O)N(C)CCN(C)c2nc(-c3cccs3)nc3ccccc23)cc1 | – | inconclusive [inhibitor, single point]

Structure (SMILES) | activity change, negative = growth inhibition | Potency
Cc1cc(=O)oc2cc(OC(=O)C3CCN(C(=O)c4ccc(F)cc4)CC3)ccc12 | – | inactive
Cc1cc2ncn(/N=C/c3ccc4c(c3)OCO4)c2cc1C | inconclusive: -34.7% [inhibitor] | –
COc1ccc(CCNC(=O)CSc2nnc(-c3ccccc3)c3ccccc23)cc1OC | – | active: 16.4 µM
NC(=O)CC(NC(=O)c1ccc(Br)cc1)c1ccc(NC2CCCCC2)c([N+](=O)[O-])c1 (stereo not drawn) | – | active: 14.6 µM
COc1cccc(CN(C)C(=O)c2cccc(NC(=O)CC3SC(N4CCCCC4)=NC3=O)c2)c1OC (stereo not drawn) | – | inconclusive [inhibitor, single point]
COC(=O)C1=C(C)N(c2cc(Cl)cc(Cl)c2)C(=O)C1 | – | active: 7.31 µM
O=C1CCCC2=C1C1(CCCC1)N=C(Nc1nc3ccccc3s1)N2 | – | inconclusive [inhibitor, partial curve]
COCCNC(=O)C(=O)c1c(-c2ccccc2)[nH]c2ccccc12 | – | inactive
COc1ccc(C(=O)Nc2ccc(C(=O)N3CCCCC3)cc2)cc1OC | – | inactive
O=[N+]([O-])c1ccccc1S(=O)(=O)N1CCCc2ccccc21 | – | inactive
CCN(CC)c1ccc(/C=N/N2CCN(Cc3ccccc3Cl)CC2)c(O)c1 | – | inconclusive [inhibitor, single point]
CCN(C)C1CN(Cc2cn(Cc3ccccc3)nn2)S(=O)(=O)C1 (stereo not drawn) | – | inactive
CCC(C)NC(=O)COc1ccccc1[N+](=O)[O-] (stereo not drawn) | – | inactive
COc1ccc(N(CC(=O)N/N=C/c2ccc(OC3CSC3)cc2)S(=O)(=O)c2ccccc2)cc1 | – | inconclusive [inhibitor, single point]
COc1cccc(N2CC(NC(=O)c3ccc4c(c3)OCO4)CC2=O)c1 (stereo not drawn) | – | inactive
O=C(NNS(=O)(=O)Cc1ccccc1)c1ccc([N+](=O)[O-])cc1 | – | inactive
CC(=O)c1ccc(NC(=O)C2CCCN(S(=O)(=O)c3ccc4c(c3)CCCN4C(C)=O)C2)cc1 (stereo not drawn) | – | inconclusive [inhibitor, single point]
COc1ccc(NC(=O)CN(C)C(=O)c2ccccc2OCC(=O)Nc2cccc(C(F)(F)F)c2)cc1 | – | inconclusive [inhibitor, full curve]
Cc1nn2cc(-c3cccc(Cl)c3)cnc2c1Br | – | inconclusive [inhibitor, full curve]
CCCCOC(=O)Cn1c(=N)n(CCN2CCOCC2)c2ccccc21 | – | inactive
Cc1cccc(C)c1NC(=O)CCCCCNS(=O)(=O)c1ccccc1 | – | inconclusive [inhibitor, partial curve]
Cc1cc(C)c2[nH]c(=O)c(C(c3nnnn3Cc3ccc4c(c3)OCO4)N3CCCC3)cc2c1 (stereo not drawn) | – | inconclusive [inhibitor, single point]
COc1cc(NC(=O)c2cc(CC(C)C)on2)c(OC)cc1Cl | – | inconclusive [inhibitor, single point]

— PubChem BioAssay AID686979 (National Center for Advancing Translational Sciences (NCATS), 2013)
